Data published in patent US11795481B2, “Processes for producing a fermentation product” (Novozymes A/S, priority 2017, dated 2023).

B1: Penicillium sp-52627: Penicillium sp-52627 AA13 polypeptide of SEQ ID NO: 142 (protein)
chain: MKFTCLLALAGTLATVDAHGYLTIPSSRTRLGFEAGIDTCPECSILEPVESWPDLEAAQVGRSGPCGYNARVSVDYNQPGDYWGNSVVATYTGGDTVEVQWCVDNNGDHGGMFTYGICQNQTLVDLFLDPDYLPSTDEKQLAEDCFLEGELKCTDVDGQTCGYNPDCTSDEACYRNDWFTCNAFAATTNRGCEGVDGAAEYSCTTTISGGYTVTKKIKIPDYESDHTLLRFRWNSYQTGQIYLHCADIAISGSGSGSDSSTTSSSTATTSKATSTTSTATTTSTCTAATSISVTFDELVTTTYGENVYISGSISQLGSWDTSSAVALSASSYTSSNPLWMATISLPVGTSFEYKFIKKETDGSIVWESDPNRSYTVPTGCSGATATVSATWR
modifications: Penicillium sp-52627
B2: Pestalotiopsis sp-71627: Pestalotiopsis sp-71627 AA13 polypeptide of SEQ ID NO: 148 (protein)
chain: MFALPALLFAASVSGHGYLTIPSSRTRLGFEAGTDTCPECTILEPVSSWPDLDVAAVGRSGVCGYNARVSVDYNFPASTWGSNTVATYSPGQIVDVQWCVDNNGDHGGMFSYRICQDQSVVDKFLTPGYIPTDAEKQAGEDCFDAGLLPCTDVSGQVCDYSPDCTAGQACYRNDWFTCNAFGATDRRGCEGVDNAPLNSCKTTIAGGYTVSKQIKIPDYVSNHTLLQFKWNSFQTGQIYISCADIAISGSGSSPAPAPGTTLTTSKTTATTTSTKTTTSAASTSTATCVAAANVAVTFNEVVTTAYGETIKIAGSIAALGSWDPSSAPALSASAYTTANPLWSRTVSLPAGTAFEYKFVRVSASGAITWESDPNRSYTVPTCGSTATVGTSWK
modifications: Pestalotiopsis sp-71627
B3: Myrothecium sp.: Myrothecium sp AA13 polypeptide of SEQ ID NO: 133 (protein, listed as Myrothecium sp.)
chain: MKTTTIVPFLSLVSQVVGHGYMVIPSSRTRLGAEAKLDSCPECTILEPVSAWPDLDVAQVGRSGPCGYNARVSIDYNRPSANWGTKPVATYTPGQTVDVQWCVDNNGDHGGMFSWRVCHDQAIVDKLLDPDRTPTDAEKQAAEDCFEAGLLPCTDVSGQSCGYSPDCTQGQACWRNDWFTCNAFSGDSGKRGCQGVDGSALGSCYTSIAGGYTVTKKVKMPEIVSNHTLLSLRWNSFQTGQVYLTCADIAITDSGSGGTPTNPNPPTTTTCAAGASVKVTFNEQVKTVVGDSVRLVGSTAQLGSWDATKGVALSADKYTDAKPLWSATVEMAPGTQFSYKFVKVASGGAVTWESDPNRAYTVPTDCSKAYTLESTWK
B4: Paraphoma sp.: Paraphoma sp. AA13 polypeptide of SEQ ID NO: 134 (protein, listed as Paraphoma sp.)
chain: MRSSVAFLSAFVASVQAHGYLSSPMSRTGLNAQAGADTCPECTILEPVTAWPDLDSAAVGRSGPCGYNARVSVDYNQPGPRWGSQPVITYTAGDTVDVQWCVDNNGDHGGMFAYRICQNQALVDKLLTPGYLPTDAEKQAAEDCFEAGTLKCTDVNGQSCGFNPDCQQGQACWRNDWFTCGGFQEGTKCRGVDNAPINSCYTSIAGGYTVTKRIKIPNYASNHTLLSLKWNSFQTPQIYLTCADIKINGAGGTTPNPPTSSRPATSTTTTSATSSAVATGCATPAATVAVTFNSKTTTVVGQTIKIAGSISQLGSWNTANAPALSASAYTSSNPLWSTTINLPAGTSFEYKFIKVESSGTVTYESGANRAYTVPRDCTGKATVDTQWK
B5: Talaromyces sayulitensis: Talaromyces sayulitensis AA13 polypeptide of SEQ ID NO: 150 (protein, listed as Talaromyces sayulitensis)
chain: MIVSIIVAAACFASAYGHGYLTIPASRTRLGFEAGIDICPECSILEPVTAWPDLETAQVGRSGPCGYNARVSVDYNQPGEYWGVEPVVTYMSGEVVEVQWCVDANGDHGGMFTYGVCQNQTLVDKFLTRGYLPTNDEKQAAENCFLEGELKCTDVSGQTCGYNPDCTAGEACWRNDWFTCNAFQANTARACEGVDGAPLNSCKTTIAGGYTVTKKIKIPDYSSNHTLLRFRWNSFQTAQVYLHCADIAISGSGNTTTSTSTSATSTAVSSCTATANLIPVTFRELVTTTWGENIFITGSISQLGSWSTGNAVALSASQYTASNPLWITTIDLPAGTTFEYKFIKKESDGSVIWESDPNRSYTVPTGCSSTIATAAASWR
B6: Acremonium sp. XZ1982: Acremonium sp. XZ1982 AA13 polypeptide of SEQ ID NO: 128 (protein)
chain: MKPASFFAHMGLVSSVLGHGYLTIPRSRTRLGAEAGIDTCPECTIREPVTAWPDLDQATVGRSGPCGFNARVSVDYNQPSANWGSAPVATYTRGQTVTVEWCVDNNGDHGGMFTYRICQDQALVDKLLTPGYLPTEAEKEAAERCFQRGTLPCTDVSGQSCGYNPDCQQGQACWRNDWFTCNAFQADSRRGCQGVDAAPLGSCYTSIAGGYRVTKQIKIPDYVSNHTLLSFKWNSFQTPQIYLSCADIAITGGTGAPNPGTTTTRMTATPTNTACAAASSVAVTFNQVATTSPGQTIKLVGSIQQLGSWNPSAAPALSASQYTSAKPLWSYTVTLAAGSTFQYKFVNVQADGTIRWESDPNRSYTVPRGCDQRVTVESTWR
modifications: Acremonium sp. XZ1982

Tested on: multi-strain LAB culture
Test: SSF of control mash with 1% w/w infected mash, AA13 candidates, HPLC of organic acids and ethanol (Example 3)
Format: cell-based
Conditions: SSF 32° C. up to 24 hours, 20% DS; for % delta Ethanol / % delta Lactic Acid: vs No Treatment
Experimental: A control mash was prepared in-house with an industry relevant blend of AA369 and Protease Pfu using a Lab-O-Mat incubator for 2 hours at 85° C. and 36% DS to simulate typical industry conditions. The mash was then frozen prior to use in SSF. An infected mash was prepared by infecting the control mash with a multi-strain LAB culture grown in MRS. The bacteria in control mash was incubated overnight, and then frozen with 20% glycerol. For this experiment, 1% weight/weight of the infected mash was mixed into the control mash. This mimics an infection event at a large-scale ethanol facility. For SSF, all mash was prepared with 1000 ppm of urea to aid with yeast fermentation. All treatments were dosed with a baseline commercial glucoamylase GSA, while AA13 candidates were dosed at either 10 ug/g-DS or 50 ug/g-DS. SSF was performed at 5 g scale with 10 uL/g rehydrated Ethanol Red yeast at 32° C. for up to 24 hours at 20% DS. At the end of fermentation, samples were deactivated with 50 uL of 40% sulfuric acid and then centrifuged. The supernatant was filtered through a 0.2 μm filter and then measured for soluble carbohydrates and organic acids using an ion-exchange H-column on HPLC.

Molecule	average Ethanol (AA13 dose 10 ug/g-DS) [g/L]	average Lactic Acid (AA13 dose 10 ug/g-DS) [g/L]	% delta Ethanol (AA13 dose 10 ug/g-DS) [%]	% delta Lactic Acid (AA13 dose 10 ug/g-DS) [%]	average Ethanol (AA13 dose 50 ug/g-DS) [g/L]	average Lactic Acid (AA13 dose 50 ug/g-DS) [g/L]	% delta Ethanol (AA13 dose 50 ug/g-DS) [%]	% delta Lactic Acid (AA13 dose 50 ug/g-DS) [%]
B1	77.6	3.4	0.0	3.9	77.7	3.3	0.1	0.8
B2	78.0	3.3	0.5	0.0	78.0	3.4	0.4	2.9
B3	77.9	3.3	0.4	−0.8	78.2	3.3	0.7	−0.9
B4	78.5	3.4	1.2	1.4	77.8	3.5	0.2	6.9
B5	78.7	3.4	1.3	1.5	78.5	3.4	1.2	1.4
B6	78.7	3.0	1.3	−9.5	78.0	3.2	0.4	−4.1
